Read counts are not given, so values of variants with three or more changes are uncertain.

From the RNAGym collection of RNA variant scans (doi:10.7554/elife.90254) come the findings set out here.

Sequences and labels used below:
B1: LINE1-full (parent)
chain: UACGUAGGUGGUUUUCCCCUGAUAGUGCUAAGGGGGCCUGGAAGUUUGGACUGGGCAGAGCUCAACACAGCGUGGCAAAGUGGCUGUGGCUAGACUGCCUCUCUGGAUUCCUCGUCACUCAGCAGGGCAUCUCUGAGAGAAAUGCC

The data set covers variants of B1. Kind of data set: self-cleavage, relative activity (ratio to wild type); higher = more cleavage; in vitro, sequencing; the parent is a self-cleaving ribozyme.
For U20A U47C A136G A138G, the self-cleavage stood at 2.63. The result for U20A U62C A136G A142G reads 0.06. Next, U20C A30G U96A A141U: 0.13; C19U U39G U73A U102C: 1.88; C19U U39C A77G: 1.76.

Turning to U20C A59U A67C, the self-cleavage is 0.07. The result for U20C A69U A121G reads 0.13.

In the case of U20C C28U A57G A117G C118U A124U A136U, the self-cleavage stood at 0.92.

As to C18A U81A U85A A138U, the self-cleavage was found to be 0.04.

In the case of U20A U45C U87A, the self-cleavage worked out at 0.07. The result for U20A U47A A65G reads 0.07; that for C17U A22G G41A, 0.61. Consider U20C A57G U81C A107U, for which the self-cleavage turned out to be 2.12.

For the variant U20C G35A G93A, the self-cleavage was 0.04. Consider U20C A50G U52C A140U, for which the self-cleavage turned out to be 0.56. Take C19G U52A A124G: the self-cleavage worked out at 0.98. Next, C19U U52A A117C: 1.69; C19U G40U U100A: 0.53.

In the case of U20C U26A A31G U102C A129G U134A, the self-cleavage amounted to 0. As for U20A A69G U109A U134A A142G, the self-cleavage was 0.07. Next, U20A A22G U112C: 1.44. Regarding U20C G36C A43G U85A G93U A136G A140G, the self-cleavage amounted to 0.07. On to C19A U47C A77U A138G A140G C146A, for which the self-cleavage was 2.26. As to U20A U62A A142G, the self-cleavage worked out at 0.04. Turning to U20C A117G A141G A142G, the self-cleavage came to 1.72. The result for C19U A69G U100C A141G reads 1.15; that for U20C A30G U52C C71U, 0.63; that for U20C A42U U62C A69C U85A C145U, 0. Turning to U20A A92G U104A U132C, the self-cleavage stood at 0.16. Next, U20A U112C U119A: 1.54.

With U20C U39C U73A, the self-cleavage was 2.02. Next, U20A U62C A129G: 0; U20A U52G A77U: 0.41. The result for C17U U26A A78C A79U G114A reads 1.15; that for U20C A78G A136G, 2.38; that for U20C U26C U45C U108C C116A C120U, 1.79. Next, U20A U46C A57G A77G: 1.53; C19U A77G U85A: 0.1; C17U U39C A42U U132C: 0.48. As for U20A U45A U87C U96C, the self-cleavage came out at 0.29. For the variant C19A A67U U73A G74A G93U U100C, the self-cleavage worked out at 0.04.

C19U G75A A129G: the self-cleavage worked out at 1.58. The result for U20C G86A U119A reads 0.11; that for C18A G33A U85C U143C, 0.19. Consider U20C A136C A138G A140U, for which the self-cleavage was 0.46.

With C18A U47C A92G, the self-cleavage amounted to 0.1. Next, U20A G48C A107G: 2.55; U20C U39C A77U A94G C133U U143A: 0.35; C19G U62C A64G A92G U96A: 0. The result for U20C G49A U102C reads 1.66; that for U20A U45A U46C, 1.19. As to U20C A67G U102C A124G, the self-cleavage was determined as 0. Next, U20A U104C U112C U134A U143C: 0; C18U U39A A78U: 1.87; C19U G44U A107G: 0.

As to C18U U104A A141U, the self-cleavage is 1.13. The result for U20C G48U U143G reads 1.88; that for U20A A42G U46C A138G, 1.48; that for C19U A31U G82A A94G U104C C110U, 0.11. The result for U20C G126U A138U reads 1.69.

U20A C51U G125U: the self-cleavage is 0.89.

For the variant U20C A42G U81C U109A A141G, the self-cleavage is 1.31.

For U20C A43G U87A U104C, the self-cleavage worked out at 0.15.

Regarding U20A U130C U143A, the self-cleavage worked out at 1.13. The result for U20A U119C A129U reads 1.9; that for C19U A121G A140G A142U, 0.7.

As for U20A A31G U45G A59C A121U A129C, the self-cleavage came to 2.3. The result for U20C G34U U91C A136U reads 0.65; that for U20A G88A A140G, 0.03; that for U20A G33U A64U U112A U132A, 0.41. The result for U20C G125A U143A reads 1.25; that for U20A A124U U132C, 1.56; that for U20A U85C U134C, 0. Next, U20C U39C U52A: 2.26.

Regarding U20A A43G A69G, the self-cleavage was determined as 0.67. The result for U20C A24G U108C reads 2.76; that for U20C G27U A78U, 1.59. Next, C17U U52A C61U A92G U115A A140G: 0.03; U20C A22U A77C A79U A136G: 1.53; C18A U87C C146A: 0.23. The result for C18A A24G U73C A121U A140G reads 0.92.

In the case of U20C G35A A142G, the self-cleavage stood at 0.87. The result for U20A U104A U109A A140G reads 0.16. Next, C19U G32A U45C U85C A107G U143C: 0; C19U G35A U85C U87C C123U: 0.02. The result for C19U U62C A129C reads 0; that for C17U A30U A77G U112C, 1.84. On to C17U U91C U96C, for which the self-cleavage came to 0. C19U G44A U132C: the self-cleavage came to 0.91.

Turning to C19U A43U G53A A129G, the self-cleavage was 1.66. On to U20C A30G A57U U109A, for which the self-cleavage is 0.13. U20C A59G G93A A141G: the self-cleavage worked out at 0.12. For the variant C17U U109C U132C, the self-cleavage is 0.6. Take C18A A43G U62C U115C A129G: the self-cleavage turned out to be 0. The result for C19U U20C U45C reads 1.39.

Turning to U20A G35A U119C, the self-cleavage is 1.08.

Turning to C19U G80U A138U, the self-cleavage was found to be 1.17. The result for C19U A65G A138G reads 0.09. With U20A U109C A129U A140G, the self-cleavage turned out to be 0.47. C18U C37U A42G U115C: the self-cleavage is 0.52. The result for C17U G60U U112C A142G reads 0.09; that for U20C A94C A124G, 0. The result for U20A G127C U132C C146A reads 2.3; that for U20C C56U U96C G114A, 0.01. C17A U23C U87C A142G: the self-cleavage was 0.82. As for U20C G33U U119C, the self-cleavage was determined as 1.45.

Regarding C19A G40U U45C U96C A129G U132C, the self-cleavage is 0. Next, U20A A69G A78U U96C A138U: 0.05; U20A A50U U91G A94C: 0.16; U20A U62C A141G: 0.

For U20A A43G U134C, the self-cleavage is 1.45. Regarding U20A A50G A65G A121G, the self-cleavage amounted to 0. The result for U20C G34U U81A A129G reads 2.56; that for C19A U100C A141G, 2.84. For C19U A67G C71U, the self-cleavage came out at 0.17. Next, U20C C38U U143C: 1.34; C19U G40A A69G C95U: 0.06. The result for U20C C61A U73C U85C reads 0; that for C19U U62C U112C U134A, 0.08; that for C19U U96C A141U, 0.05. As for U20C G35A A79G, the self-cleavage was 1.4.

Consider U20C A78G A124U A129G, for which the self-cleavage came to 1.15.

Turning to U20A G34A A77G, the self-cleavage stood at 2.07. As for U20A U46A U119C U143A, the self-cleavage came out at 1.01. The result for U20C A77U U132C reads 2; that for C18A U130A A140U, 1.46; that for C18U U20A U47C C99U A136G, 0.94.

In the case of U20C A67G A117G A124U, the self-cleavage came out at 0. As to C19U U52A U143A, the self-cleavage came out at 0.9. Consider U20C A30G G33A G40A A77U U100C A142G, for which the self-cleavage is 0.79.

Regarding U20C A67G A79G U132C, the self-cleavage was 0.

For the variant U20C A22G A117G, the self-cleavage came out at 1.02. Next, U20A A43G A69C U108C: 0. Turning to U20C A107G U112C, the self-cleavage worked out at 1.1.

On to U20A C56A A65U A121G A141G, for which the self-cleavage worked out at 0.05. As for C17U G58U U85C U102C, the self-cleavage was determined as 0. As for U20C A94U U108C U115C, the self-cleavage worked out at 0.63. Next, U20C G75A A124G U130C: 1.2; U20C G53A U108C A117U: 1.67.

Turning to C19U U47A A94G C98A U109C, the self-cleavage was 0.02. Next, C17G U20C G75C: 1.34; U20A U47A A78G U96A: 0.03. Next, U20C A64U A92G C95U: 0.09.

U20C A57G A65G G86U U115C U130C: the self-cleavage turned out to be 0. With U20C A142G U143A, the self-cleavage stood at 1.5.

Consider C17A U85C G137A, for which the self-cleavage was 0.2. Next, U20C A50G A129U: 0.79. The result for C17A U26C C38A A94G reads 0.15.

As for C17A U20C A65G U91A A107G A140G, the self-cleavage came to 0. As to C19A C98U G125A C131U, the self-cleavage is 0.67. The result for U20A U112C U115A reads 0.69. For the variant C18A C76U U87A, the self-cleavage amounted to 0.13.

Turning to U20C U45A U109C, the self-cleavage stood at 0.95.

Regarding U20A A31U A43G U52A G86U, the self-cleavage came to 0.09.

As to C18U C61A U104C U143C, the self-cleavage worked out at 0.03. As for U20A G114A U130A, the self-cleavage amounted to 0.67. The result for U20A U87C U132C reads 0; that for U20A A43G U102A A141G, 1.08. The result for U20A C90U U102C A121U reads 0.03. Next, C17G U115A A124G: 0.54; U20C U23C A24G G53U: 0.67. Take C18U U23A U96G U143C: the self-cleavage stood at 0. In the case of C19U A30G A65G, the self-cleavage was found to be 0.06. Next, U20A U62A U109A A124G A129U: 0.

Regarding C18A G34U A65G U85C G127U A142G, the self-cleavage turned out to be 0.07. As to C18U A24G C28A U39A A57G U100C, the self-cleavage turned out to be 0.29. The result for C19A U102C U132C reads 1.02.
